# Results taken from the supplement of paper PMC3334620.
# Whole data set: some 33,000 sequences, median “E-score (-0.5 to 0.5)” near -0.036, cut for the highest 2% near 0.37. This is one part of the list.
# Molecular target: T1, Yer064c (UniProt P40041)
# T1 sequence: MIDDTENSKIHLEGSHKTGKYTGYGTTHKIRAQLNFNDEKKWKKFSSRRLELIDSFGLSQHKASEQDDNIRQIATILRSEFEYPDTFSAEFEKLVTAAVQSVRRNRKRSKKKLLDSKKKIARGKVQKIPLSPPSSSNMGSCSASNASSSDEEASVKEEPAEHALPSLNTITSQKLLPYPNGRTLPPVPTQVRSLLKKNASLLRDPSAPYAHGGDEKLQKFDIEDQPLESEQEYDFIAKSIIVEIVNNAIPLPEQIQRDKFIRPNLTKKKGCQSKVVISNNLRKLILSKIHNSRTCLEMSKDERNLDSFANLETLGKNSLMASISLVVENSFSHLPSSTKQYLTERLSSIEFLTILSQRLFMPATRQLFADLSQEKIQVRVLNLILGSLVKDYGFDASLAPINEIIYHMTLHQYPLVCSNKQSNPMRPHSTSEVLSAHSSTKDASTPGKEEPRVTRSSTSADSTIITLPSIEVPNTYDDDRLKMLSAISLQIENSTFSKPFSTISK
# Test: PBM E-score (8-mer binding enrichment) (E-score (-0.5 to 0.5)); higher = stronger / more preferred TF binding; most listed sequences are background and not binding sites
# Details: protein concentration: 200 nM; construct: GST-full length
# Method: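 Universal 'all 10-mer' protein binding microarrays (Agilent AMADID 015681) probed with GST-tagged S. cerevisiae TFs (full-length or DBD) made by in vitro transcription/translation (PURExpress), about 100-200 nM. Bound TF was detected with fluorescent anti-GST. Each ungapped 8-mer (which stands for itself and its reverse complement) is scored by the PBM enrichment score (E-score), a modified Wilcoxon-Mann-Whitney statistic from -0.5 to +0.5, computed with the Universal PBM Analysis Suite. Scale: above 0.35 generally sequence-specific binding.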
row,Sequence,PBM E-score
1,AGGTATAT,-0.0319
2,GTCTGCAA,0.00067
3,ATTGTCAG,0.102
4,AGCGACCC,-0.196
5,AGGGGATC,-0.337
6,ACTGTACC,0.021
7,CGTAATCC,-0.0532
8,GAGAGACA,0.0904
9,AGCCGCAG,-0.13
10,CGTACAGA,-0.0762
11,GACGAATA,-0.129
12,AAGGAATG,0.0367
13,AATATGAG,0.25
14,ATCTTCAA,0.165
15,CAGACTCG,0.218
16,ATCTAGCC,-0.00465
17,ACATTGAA,0.153
18,GGGGCGCA,-0.245
19,ACACGCTC,0.0833
20,ATTAGCTC,0.141
21,CCGCACCG,-0.0486
22,ATAACCTA,-0.136
23,CTTGCCGA,0.0517
24,ACCTCAGC,0.0114
25,AGCCTACA,-0.0615

row,Sequence,PBM E-score
1,ACCGTGAA,0.0427
2,AGGGCATG,-0.105
3,CACTCGCC,-0.0244
4,GGGCCTGA,-0.112
5,CCGGTACA,-0.226
6,CAACAGCC,-0.136
7,CACGAAGA,0.175
8,ATGTCATC,-0.179
9,ACAGGTGC,-0.16
10,ACGTAGTA,-0.0277
11,ACGGGCGA,-0.195
12,AGTGCCAG,-0.246
13,ACTGATGG,0.00675
14,AACCGGCG,0.00912
15,GTCTCACA,0.273
16,AGAGGGGA,-0.235
17,AAGTCATA,0.46
18,GATACTAA,0.0479
19,GATTGGAA,0.0504
20,ACGCAAGA,-0.00165
21,GCAACCGC,-0.0648
22,ATGGAAAG,-0.0473
23,ACAGGTTG,-0.138
24,CCGTTTCA,-0.244
25,CAGTGTCA,0.0794

row,Sequence,PBM E-score
1,CCACGCTA,-0.126
2,CTCTACGA,0.148
3,AGCCTCCG,-0.212
4,TACATAGA,0.0752
5,CGCGGAAA,-0.0571
6,CAGCGACA,-0.154
7,GACCCATC,0.13
8,GAAACACA,0.144
9,CATTTCGG,-0.126
10,CGCAGAAC,-0.0691
11,CTGCTGCA,-0.0266
12,ATCAAGAC,0.181
13,AGTTTGAC,0.0997
14,ACGGATAA,-0.0519
15,CCACTTCC,-0.0204
16,AGTCCTGG,0.251
17,AGCACTCG,-0.225
18,CGCATCTC,-0.208
19,AACTTTGA,0.173
20,ACCCGTCG,-0.22
21,AGGAAAGA,0.028
22,TCCTCGCA,0.0301
23,CAAAGATG,-0.0307
24,CCATCCTC,-0.0886
25,ACACAGAC,0.19

row,Sequence,PBM E-score
1,CGAGGGCG,-0.247
2,AGGTTAAA,0.0731
3,ATATATGG,0.0145
4,ACCATATC,0.0108
5,CAGCTTGA,0.198
6,AGTCTAAG,0.206
7,ATTCTCAA,0.13
8,GCAGTTCC,-0.275
9,AGTACATA,0.128
10,ACTCAGTG,0.251
11,CCTCGTCA,0.11
12,CCCTGTAA,-0.0746
13,CTAGTTGA,0.161
14,AAAAAGCT,-0.064
15,CTCACTAC,0.158
16,AATTAGAG,0.0626
17,TATGCAAA,-0.0478
18,GGCCGACC,-0.247
19,AACGGGCA,-0.194
20,AGAATATA,0.0599
21,AATGCATC,0.00264
22,AAATGCTA,-0.0549
23,AGGGTAAT,0.0524
24,ACGATTCA,0.298
25,CGCTCCCC,-0.299

row,Sequence,PBM E-score
1,TCCTCAAA,0.24
2,CAAGTAGA,-0.0644
3,AGGGACGA,-0.2
4,CCGGCAAC,-0.124
5,TCTTACCA,0.122
6,TGCATTAA,0.0992
7,CTAGGAAA,-0.00423
8,GAGCTATC,-0.332
9,CCTTATGC,-0.19
10,CCGTCCCG,-0.193
11,ATGACTGG,0.409
12,GCGGCGGA,-0.113
13,GTCCAGAA,-0.109
14,GAGATGGC,-0.0344
15,CACTTTCG,-0.131
16,CACAGTTC,-0.112
17,GTCCCTGA,0.0819
18,AGGTGGGG,-0.12
19,CGTCACCC,-0.258
20,CATAGCGA,0.0805
21,AAAATGGC,-0.194
22,AAAGTCCA,0.0185
23,GAACGAAC,-0.0123
24,AGGGCTAG,-0.215
25,ACTATCCT,0.0209

row,Sequence,PBM E-score
1,AATCCCTA,-0.185
2,AGCCTGGA,-0.0581
3,AGACAGAC,0.169
4,AGGGTCAG,-0.0512
5,CTCAACTA,0.189
6,GTAGACTA,0.286
7,ATATAGAA,0.0478
8,CCTTGGGA,-0.102
9,ACTTACCA,-0.053
10,TAATAGAA,0.0796
11,AGTCGAGG,0.0213
12,ACCCCGAC,0.0675
13,CGGGCTAA,-0.0897
14,AGTTGTCA,0.0701
15,TAGACACA,0.0513
16,TCTATCCA,0.0446
17,ACTTATCA,0.0775
18,ATAAGGGG,-0.235
19,TAATGCCA,6e-05
20,GCCTCAAC,-0.22
21,CGATGCAG,-0.113
22,GAATCAAA,0.268
23,ATACTTAC,0.0356
24,ACTTCCTG,0.0153
25,AAGAAGAA,0.0162

row,Sequence,PBM E-score
1,GCGATATA,-0.0593
2,ATGTCGCA,0.0105
3,AGTCGTTG,0.326
4,ATACGCGC,-0.0263
5,CGGAACAC,0.124
6,CAGAGGGA,-0.199
7,CCTACCGC,-0.171
8,AGGTGTTC,-0.0778
9,CAGGGGGG,-0.233
10,AGCTATTG,0.00415
11,GATAGAGC,-0.209
12,TGCCAAAA,0.00043
13,ACTTTACG,0.151
14,AAAGTTCA,-0.0917
15,CGTGGGAA,-0.0695
16,GTATTAAC,0.234
17,ATCCACTG,-0.109
18,ACAGCTAG,-0.234
19,TAGCGGAA,-0.0839
20,ATATGGAT,0.0955
21,ACCTTGCT,-0.13
22,CGGCACGC,-0.307
